For 22 molecules, binding signal results are on record in paper PMC12136788.

This is one part of the list.

The labels stand for the following.
B1: chr5:61681977:61681978:+_ENSG00000068796_ENST00000381103|hu_hu|motif|central (ssRNA)
RNA: GGGAGUUCUACAGUCCGACGAUCCCACUGUCACAGACUUUAGUUCCGUUCAAUGAUAUGGCACAUCCUGCAAAAUUAACGGGUCACACACAAAAAAUGUCUCAAAUACAGUAAAAAUGUACACACAAAGGUAAUUUACAAUGACAACAGAGGAUUGAGCAUCA
B2: chr11:118894041:118894042:+_ENSG00000196655_ENST00000359005|hu_mus|FALSE|FALSE (ssRNA)
RNA: GGGAGUUCUACAGUCCGACGAUCAGGUUCAUCCUAUGACCCAGGUCCAAAAGUGCCAGCCUUCUCUGCCACCUCUAGAGCUAGCUUCAGGUUUUGAUCAAACAGCUCGCAUCUGAUAGGCAUUUCCAAGGAGUAGAAUGGAUUCAACAGAGGAUUGAGCAUCA
B3: chr5:21408736:21408737:-_ENSMUSG00000042453_ENSMUST00000161356|mus_hu|mus_mus_mus_hu_False|8_78 (ssRNA)
RNA: GGGAGUUCUACAGUCCGACGAUCGUUGACAGAGUUGUAGAUGGUGGCUUCAUGGAACUGGAACGGGGAGCAGCCAAUGCUGUUAGAAGAGGAAGGAAGGCACUGGGUCUGUACGAGCUGCCAGGAAUCGGACCUUGCAUCCUUCAACAGAGGAUUGAGCAUCA
B4: chr2:55200753:55200754:-_ENSG00000115310_ENST00000317610|hu_hu|FALSE|FALSE (ssRNA)
RNA: GGGAGUUCUACAGUCCGACGAUCUUGGAUUUUAGCCAUAGCAUCUUUAACAUUCUUAUUUGCAAGUCCUAGAUAAUGAUCUAUCUGUGCCUGAUGCCGUUCAUAAAUAACAGGAACACUGAAGAGUGAAAUGAGAGCCAAAAUCAACAGAGGAUUGAGCAUCA
B5: chr16:94690093:94690094:+_ENSMUSG00000040785_ENSMUST00000117648|mus_hu|mus_mus_mus_hu_True|98_108 (ssRNA)
RNA: GGGAGUUCUACAGUCCGACGAUCGGGGACUCCUGUGAGCAGACAGCCCUCGAUUCCAGGGGGAAAAAGUCUUAGUCGAUACUAAUUAAAAAGUGUUAAUGAUUUUUGAAAAUCAGAUUACAUCUAUAAAAGAUGAAAAGCAAACAACAGAGGAUUGAGCAUCA
B6: chr5:133537698:133537699:-_ENSG00000113575_ENST00000481195|hu_mus|motif|central (ssRNA)
RNA: GGGAGUUCUACAGUCCGACGAUCGCUCUCGUGAUUCCCUCGGAGUAUGGUGAUGCGCUCUCGGUAACGAACCUUAAGAGCGGCAAGCAGUGUAACUGUUUCAACAGAGUAAUAUCCUCUGUCCACAUAGUCUCCCAUAAACAGCAACAGAGGAUUGAGCAUCA
B7: chr16:45382771:45382772:-_ENSMUSG00000022661_ENSMUST00000163230|mus_mus|mus_mus_mus_hu_True|58_68 (ssRNA)
RNA: GGGAGUUCUACAGUCCGACGAUCCUGGGUCAUGUUAUAAGACAAAUGGACAGGGAGGGCAUGCUUCUGUAAAGAUGUGAACUACUCUCUAAGACUAACAAUAUUUAUCUAGCUAUAAAAAUAAGUUAAAUGAAUAAGUUAAGACAACAGAGGAUUGAGCAUCA
B8: 118506678_118506798_6332_CDS_ENSG00000172869_ENST00000311085|human|control|control (ssRNA)
RNA: GGGAGUUCUACAGUCCGACGAUCAGGCAAAUCUUCAGCAUCCUCAUUUAAUCCAAAUUCAUCUUCAUUUCUGCCAAAUGCAGACUGUAGUUCUUCAGCAUCUGAGCAAAAGUCACAAGUCCUCUGAAGAGCUAUCACCUCUUUCAACAGAGGAUUGAGCAUCA
B9: chr4:25749455:25749456:-_ENSG00000091490_ENST00000264868|hu_hu|hu_hu_hu_mus_False|1_58 (ssRNA)
RNA: GGGAGUUCUACAGUCCGACGAUCGCACUAUGACCUCUAGAAAAAUCCACAGGGGGAAAAAAUGUAAACCAAUGUACAAAGCUAUUGCCUUCCCUGUGUGUGGAGUGUUUGUCUCAAGGCUCCUUCUAGCUGCUGGACUGCUAGCAACAGAGGAUUGAGCAUCA
B10: chr14:66974463:66974464:+_ENSMUSG00000022044_ENSMUST00000074523|mus_hu|mus_mus_mus_hu_False|58_68 (ssRNA)
RNA: GGGAGUUCUACAGUCCGACGAUCUUGUAGGACGACUUAUUCAGGGGAUCGGCCAGGAAGCAGGAGCAGAACAGAGACACUAGUGGGAGCUCCUUCAUCUUCUCUUUGUAGGCAGCAAGGGUCAUGUUUCUGGGAUCUGGUGGCCAACAGAGGAUUGAGCAUCA
B11: 11078906_11080581_693_CDS_ENSG00000120948_ENST00000240185|human|control|control (ssRNA)
RNA: GGGAGUUCUACAGUCCGACGAUCCUGAGAGAAGAACUCCCGCAGCUCAUCCUCAGUCAUGUCCUCUGUACAGCGCCCCACAAACACUUUUCUGCUUCUCAAAGGCUCAUCUUGGCUUUGCUUAGAAUUAGGAAGUUUGCAGUCCAACAGAGGAUUGAGCAUCA
B12: chr2:216981417:216981418:+_ENSG00000079246_ENST00000392132|hu_hu|hu_hu_hu_mus_True|18_68 (ssRNA)
RNA: GGGAGUUCUACAGUCCGACGAUCCUGAUACUGGUCCUUGCCAGCAAGGGCAUUAUCAGUGCCAUCUGUACCAAACAGGACUAACGCAAUCUCAUCUUUGCUCUCCGAAAAUACCUGUCGCUGUACAAACAUAGUCAUCACUUUCAACAGAGGAUUGAGCAUCA
B13: 83881777_83885685_1300_3pUTR_ENSG00000013375_ENST00000513973|human|control|control (ssRNA)
RNA: GGGAGUUCUACAGUCCGACGAUCCCUGGUUAAACAAGUCAAUAAUGUUUUCAAGCAUCUUAGCAGCUUUUCUUUUCUUAUCUUCCAGUUGUUCUGCUGAUUGUUUUAUCUUCAUUUCAACAGCUGUACUAAACAGUGCAGUGCCAACAGAGGAUUGAGCAUCA
B14: chr6:38652254:38652255:-_ENSG00000124767_ENST00000373365|hu_hu|hu_hu_hu_mus_False|28_108 (ssRNA)
RNA: GGGAGUUCUACAGUCCGACGAUCCGAAAACUUCAUAGCAGGGAAGUCAAGCUUCUGCAGGAGGGUCAGUCCAAGAACCCUCGUAUAAAAAUCCAGGGACUUCUUAGGAUCCUUCACUCUUAGCAUCGUUUGCUGCAGUAGAAACAACAGAGGAUUGAGCAUCA
B15: chr2:73747422:73747423:-_ENSMUSG00000018770_ENSMUST00000018914|mus_hu|motif|central (ssRNA)
RNA: GGGAGUUCUACAGUCCGACGAUCCUGAGACACACCAUUCUGGGCCCCAUUAAAUACCGUAGAGCCCUCUCCAGUCCGGCGGGCCUCUGGUCGAGAUAACACUGAUGCAGAAAUUGGUCUGUAUGCAACUCUGGAUCCAGCUCGCAACAGAGGAUUGAGCAUCA
B16: chr2:29004620:29004621:+_ENSG00000213639_ENST00000296122|hu_hu|motif|central (ssRNA)
RNA: GGGAGUUCUACAGUCCGACGAUCCAAUUUAAUAUUAAAUCUUCGUUUGCAUUCAUCAUAGAAUCCAUAAAUGCGAUUGAUGCGGGCACACUCAUGGUUUCCUCUUAAGAGAAAGAAGUUCUCUGGAUAUUUGAUUUUAUAAGCCAACAGAGGAUUGAGCAUCA
B17: chr17:30678820:30678821:+_ENSG00000010244_ENST00000394673|hu_mus|FALSE|FALSE (ssRNA)
RNA: GGGAGUUCUACAGUCCGACGAUCAUUUAAAAUGCUUUGCUUUUUGGUGCUGUAUAAGGAUCUUCUCAUCAUCAAAAUCUCUGUUACAAUACCAGCACCACGGCUUGAGCUGCUUCUUCUUCUUGCGACCCAUAACUGCGCCCUCAACAGAGGAUUGAGCAUCA
B18: chr2:202488911:202488912:-_ENSG00000155755_ENST00000286196|hu_mus|hu_hu_hu_mus_False|68_78 (ssRNA)
RNA: GGGAGUUCUACAGUCCGACGAUCAUUGAAACAUUUUUCAUAAUCUCCAGUAGCAUUCAGUAUUAUAUAAUCAAAAACUCAAUUGUAAAUACAUGUAUCUUAUAAAAAUACACUUAAAAACACGAGUGGGGAGCGCAGGCGCCACAACAGAGGAUUGAGCAUCA
B19: 70218037_70218157_4093_3pUTR_ENSMUSG00000030465_ENSMUST00000120071|mouse|control|control (ssRNA)
RNA: GGGAGUUCUACAGUCCGACGAUCAGUAGAAUUUUUAAAACUGGGUUCCUGGUAAAUCUUUUUAGAAGCUAGCAUGUGGGGGUAGGGGUGAAGCCCAAGAUACACACAGAUUUUAUACAAGGGGUACUUCAAUGGUCAGUUUUUCAACAGAGGAUUGAGCAUCA
B20: 51549937_51557071_1033_CDS_ENSMUSG00000036391_ENSMUST00000109097|mouse|control|control (ssRNA)
RNA: GGGAGUUCUACAGUCCGACGAUCUGGGCCUCCAGCUGGAGGGGGCCCAGGAGGAGCUCCUGGCUGAAAAGUGGGGGGCAGAGGUGGGUUCUGUAAGGGAAGUGCAGAACCUGGCUUUUUGAAGCUGGUUUGAAGUGCAGGGUCCAACAGAGGAUUGAGCAUCA
B21: chr15:41988372:41988373:+_ENSG00000174197_ENST00000570161|hu_mus|motif|central (ssRNA)
RNA: GGGAGUUCUACAGUCCGACGAUCUGUCUCUUCUUGUUUCACUGUUAUCCCUUCUGGGCAUUCACCAAGUUCAUAAUCAUAAUCAUCGGGAGGCUCUUCUUUAAUGACGACAUUAAAGUUUCCAUUCGGGUUUGAUGGUGAGGACAACAGAGGAUUGAGCAUCA
B22: 80378281_80380283_1559_CDS_ENSMUSG00000027002_ENSMUST00000028386|mouse|control|control (ssRNA)
RNA: GGGAGUUCUACAGUCCGACGAUCAACAGCAUCAAAGCCAGAGAGGUAUUGCACGUAGUACCUCUGCAUGACAGGCCCAUACUUCCUGACAUGUGCUCUAAGCUCUUCCAUGUAAAAUAUUAGCUCAGCAAUGUGCUUAUCUAUCAACAGAGGAUUGAGCAUCA

The test deals with T1, UNK ZnF1-3 (human, UniProt Q9C0B0 31-174).
T1 sequence: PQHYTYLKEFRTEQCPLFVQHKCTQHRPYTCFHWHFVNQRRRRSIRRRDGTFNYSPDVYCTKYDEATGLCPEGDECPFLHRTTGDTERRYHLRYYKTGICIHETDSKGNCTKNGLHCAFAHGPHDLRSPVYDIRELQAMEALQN
Kind of test: nsRBNS (natural sequence RNA bind-n-seq); RBNS binding buffer (assumed for nsRBNS): 25 mM Tris pH 7.5, 150 mM KCl, 3 mM MgCl2, 0.01% Triton X-100, 500 ug/ml BSA, 20 U/ml SUPERase-In, 4 C; UNK is unkempt and MSI1 is Musashi-1; names of the RNAs are library labels; protein concentration not given here; high values mean tight binding.
Turning to B1, the binding signal turned out to be 1.38 enrichment R.

Molecule B2 returned a binding signal of 1.2 enrichment R. Then B3, with 1.53 enrichment R; and B4, with 1.44 enrichment R. Next, B5: 1.3 enrichment R; B6: 0.972 enrichment R. Next, B7: 1.51 enrichment R. In the case of B8, the binding signal is 0.876 enrichment R.

B9 showed a binding signal of 0.988 enrichment R. Next, B10: 2.24 enrichment R; B11: 0.918 enrichment R. Then B12, with 0.757 enrichment R. Then B13, with 0.393 enrichment R. B14 registered a binding signal of 0.426 enrichment R. The molecule B15 displayed a binding signal of 1 enrichment R. Take B16: the binding signal was found to be 1.24 enrichment R. Next, B17: 0.719 enrichment R. Then B18, with 1.33 enrichment R; and B19, with 2.56 enrichment R; and B20, with 2.06 enrichment R. Then B21, with 0.961 enrichment R; and B22, with 1.33 enrichment R.
